Screen size: about 310,000 compounds; about 14,000 (4.5%) showed an effect of 50% or more. Effects have a minus sign here. This is one part of the list.
target: human ether-à-go-go-related gene (hERG) potassium channel (human, UniProt Q12809); experiment: primary screen, population patch clamp on CHO cells stably expressing hERG
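Further: peak tail current of the secondary pulse compared with the same well before compound.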

Sequence of human ether-à-go-go-related gene (hERG) potassium channel (Q12809 whole entry, looked up): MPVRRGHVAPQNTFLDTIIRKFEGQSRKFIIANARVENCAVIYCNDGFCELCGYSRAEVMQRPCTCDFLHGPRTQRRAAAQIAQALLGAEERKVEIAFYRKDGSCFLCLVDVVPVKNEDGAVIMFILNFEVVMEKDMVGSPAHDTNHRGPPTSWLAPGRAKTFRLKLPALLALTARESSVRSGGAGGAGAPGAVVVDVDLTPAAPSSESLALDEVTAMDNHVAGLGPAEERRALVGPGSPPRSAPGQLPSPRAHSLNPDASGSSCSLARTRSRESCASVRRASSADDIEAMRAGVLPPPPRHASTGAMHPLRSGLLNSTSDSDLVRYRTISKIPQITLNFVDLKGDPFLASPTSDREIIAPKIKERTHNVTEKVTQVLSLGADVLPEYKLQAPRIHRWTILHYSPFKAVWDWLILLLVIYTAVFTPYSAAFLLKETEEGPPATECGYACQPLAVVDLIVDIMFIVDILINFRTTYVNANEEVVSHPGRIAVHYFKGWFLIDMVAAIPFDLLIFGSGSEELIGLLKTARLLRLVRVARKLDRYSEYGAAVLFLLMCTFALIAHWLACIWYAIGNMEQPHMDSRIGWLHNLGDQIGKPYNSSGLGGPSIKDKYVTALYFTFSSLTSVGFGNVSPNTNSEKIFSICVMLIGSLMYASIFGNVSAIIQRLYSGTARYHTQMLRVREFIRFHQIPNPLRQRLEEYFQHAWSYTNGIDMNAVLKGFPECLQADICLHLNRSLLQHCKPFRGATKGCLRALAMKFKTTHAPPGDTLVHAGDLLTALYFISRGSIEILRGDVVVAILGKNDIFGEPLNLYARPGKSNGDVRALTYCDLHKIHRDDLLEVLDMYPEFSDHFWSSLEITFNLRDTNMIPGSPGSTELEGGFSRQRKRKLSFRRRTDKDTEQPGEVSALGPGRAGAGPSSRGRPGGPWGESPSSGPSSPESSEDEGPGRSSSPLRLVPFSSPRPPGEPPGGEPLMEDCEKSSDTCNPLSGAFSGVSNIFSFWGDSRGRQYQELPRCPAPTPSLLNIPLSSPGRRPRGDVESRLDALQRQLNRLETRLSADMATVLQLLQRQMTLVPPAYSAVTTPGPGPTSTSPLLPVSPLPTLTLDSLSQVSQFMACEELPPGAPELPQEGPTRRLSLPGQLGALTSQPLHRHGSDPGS

Row | Compound | hERG current change (%, negative = inhibition) at 10uM
1 | O=C(NNS(=O)(=O)c1ccc(Cl)cc1)c1sccc1-n1cccc1 | -2.65%
2 | CCCCCOc1ccc(NC(=O)C(=O)NCCC2=CCCCC2)cc1 | 6.54%
3 | COc1ccccc1N1C(=O)CSC1=NC(=O)c1ccccc1 | 4.68%
4 | N#Cc1ccc(C23CC4(C2)[C@H](CN(CC2CCCCC2)[C@@H]4c2ccccc2)C3c2ccccc2)cc1 (some centres unmarked) | -13.6%
5 | Cc1ccc(C(C(=O)NC2CCCC2)N(CCCO)C(=O)Cn2nnc(-c3ccc(C)o3)n2)cc1 (centres unmarked) | 15.3%
6 | COc1ccc(C(NC(=O)/C=C/c2ccco2)c2ccc(OC)c(OC)c2)cc1 (centres unmarked) | -11.2%
7 | CSc1nc(-c2ccco2)cc(C(F)(F)F)c1C#N | 24.5%
8 | Cc1ccc(C(=O)NNC(=O)c2ccc(Br)s2)cc1S(=O)(=O)N1CCOCC1 | -26.2%
9 | COc1cccc(N/C(SC)=C(/C#N)C(N)=O)c1 | -10.1%
10 | O=C(Nc1nnc(SCc2ccc(F)cc2)s1)c1ccc2c(c1)C(=O)N(c1ccccc1Cl)C2=O | 40.4%
11 | CCCOc1c(Br)cc(C(=O)OCC(=O)NC(=O)c2cccn2C)cc1OC | 12.3%
12 | CCCCNC(=O)C1CCC(=O)N1CCc1ccccc1 (centres unmarked) | 18.2%
13 | O=C(CNC(=O)N1CC(=O)Nc2ccccc21)NCCc1cccc(F)c1 | 10.7%
14 | Cc1cccc(NC(=O)Cn2c(=O)n(Cc3ccco3)c(=N)c3c4c(sc32)COC(C)(C)C4)c1 | -6.46%
15 | O=C(CSc1nnc(NC(=O)c2ccco2)s1)Nc1cccc(F)c1 | -4.91%
16 | CCC(=O)c1ccc2c(c1)OCCO2 | 3.36%
17 | CCOC(=O)c1cccc(OCC(O)CNCCOc2ccccc2F)c1 (centres unmarked) | -63%
18 | Cc1cc(C)nc(N/N=C/c2cc(C)n(CC(F)(F)F)c2C)n1 | 3.98%
19 | CCCCCn1c(CN2CCCCC2C)nc2c1c(=O)n(C)c(=O)n2C (centres unmarked) | -44.7%

Row | Compound | hERG current change (%, negative = inhibition) at 10uM
20 | COC(=O)CNC(=O)CSc1nnc(-c2ccc(OC)cc2)n1CC(C)C | 4.97%
21 | CCn1c(CNC(=O)c2ccc(OC)c(OC)c2)nnc1SCC(=O)c1ccc(OC)cc1 | -0.747%
22 | O=C(O)CSc1nnc(-c2cccnc2)n1Cc1ccccc1 | 10.4%
23 | Fc1ccc(SCCc2cccc[nH+]2)cc1.O=P([O-])(O)O | 9.83%
24 | CCN(C(=O)COc1ccccc1)C1CCCCC1 | 7.42%
25 | Cc1ccccc1Nc1nc(N)nc(CSCc2c(C)noc2C)n1 | 7.34%
26 | O=C(NCCCN1CCCCC1)c1ccc2c(c1)ncn2C1CCCC1 | 8.82%
27 | CCCn1nc(C(=O)NCC(C)(C)N2CCOCC2)c2ccccc2c1=O | -17.5%
28 | C[C@@H](NC(=O)c1nc[nH]c1C(=O)NC1CCN(C(=O)OC(C)(C)C)CC1)c1ccccc1 | -14.4%
29 | CC(C)CSc1nnc2c3ccccc3n(C)c2n1 | -11.9%
30 | Cc1c(NC(=O)N2CCCCCC2)c(=O)n(-c2ccccc2)n1C | 13.8%
31 | CCOn1c(=O)c(-c2cc(OC)ccc2OC)[n+]([O-])c2ccccc21 | 14%
32 | CC(NC(=O)C1CCCN(S(=O)(=O)c2cnc[nH]2)C1)c1ccccc1 (centres unmarked) | -4.22%
33 | Cc1ccc(S(=O)(=O)CCC(=O)OCC(=O)c2c(N)n(CC(C)C)c(=O)n(C)c2=O)cc1 | -27.9%
34 | Cc1ncc(CN2CCCC(C(=O)Nc3ccc(-c4cccc(F)c4)cc3)C2)n1C (centres unmarked) | -69.5%
35 | O=C(CCNS(=O)(=O)c1ccccc1C(F)(F)F)N1CCN(S(=O)(=O)c2cccc(F)c2)CC1 | -5.52%
36 | O=c1cc(N2CCN(c3ccccc3)CC2)[nH]c(=O)n1-c1ccccc1 | 7.02%
37 | CS(=O)(=O)Nc1ccccc1Oc1ccccc1 | 15.7%
38 | Cc1nc2c3ccccc3nc(NNC(=O)CCC(=O)NC(C)C)n2n1 | 13.3%

Row | Compound | hERG current change (%, negative = inhibition) at 10uM
39 | Cc1cc(C)nc(N2CCCC(C(=O)Nc3cc(F)ccc3C)C2)n1 (centres unmarked) | -3.45%
40 | Cc1oc(-c2cccc(F)c2)nc1CN1CCCCC1CCc1ccccn1 (centres unmarked) | -91.5%
41 | CCCCn1nnnc1NCc1ccc(OC)c(OC)c1OC | -4.07%
42 | Br.CCN1C2=NCCCN2c2cc(C)c(C)cc21 | -23.2%
43 | COc1ccc(NC2CCCN(C(=O)CCc3ccccc3F)C2)cc1 (centres unmarked) | -10.7%
44 | CC(=O)O.CC(C)CC1NC(C(=O)O)Cc2c1[nH]c1ccccc21 (centres unmarked) | 15.3%
45 | Cc1ccc(CC2S/C(=N/c3ccccn3)NC2=O)cc1 (centres unmarked) | 20.8%
46 | Cc1ccccc1CN1CCN(CCCc2ccccc2)C(CCO)C1 (centres unmarked) | -70%
47 | O=[N+]([O-])c1ccccc1/C=C/CN1CCN(Cc2ccc3c(c2)OCO3)CC1 | -46.5%
48 | CCn1c(SCC(=O)N2CCCC(C)C2)nc2c1c(=O)n(C)c(=O)n2C (centres unmarked) | 0.929%
49 | C=CC[C@@H](C)CC(=O)C(CCCN=[N+]=[N-])SOOc1ccccc1 (some centres unmarked) | -5.93%
50 | CN(C)c1ccc(/C=C/C(=O)c2cc(Cl)ccc2O)cc1 | 6.87%
51 | FC(F)(F)c1cccc(Sc2nc(-c3ccccc3)nnc2C(F)(F)F)c1 | 10.2%
52 | CC(NC(=O)[C@H](C)NC(=O)c1ccco1)c1ccc(S(N)(=O)=O)cc1 (some centres unmarked) | 18.9%
53 | CCOc1ccccc1/C=C/c1nc2ccccc2[nH]c1=O | 6.38%
54 | Cc1ccccc1-c1nc2sc(C)c(C)c2c(=O)o1 | 17.7%
55 | CCOc1cccc(-c2c(C(=O)N/N=C/c3ccoc3)nnn2-c2nonc2N)c1 | 16.8%
56 | Cc1ccc(NC(=O)c2cc(=O)[nH]c3ccccc23)cc1 | 18.4%
